Results: PubChem BioAssay AID686979 (National Center for Advancing Translational Sciences (NCATS), 2013)
Several values for one entry are separate records, joined by “and”; a condition that tells them apart may be missing. Identical values can stand only once. Hit rate of the full screen: of about 420,000 compounds, about 50,000 (12%) were called active. The inconclusive results got no clear call from the source; some entries with a clear call stand among them for comparison. Calls come from the whole dose curve; as a rule, active = well fitted inhibition curve with a large enough effect; inconclusive = small, poorly fitted or top-dose-only effect; inactive = flat fitted curve, though single readings scatter. Potencies of inconclusive entries are left out as doubtful fits.

test: qHTS for Inhibitors of human tyrosyl-DNA phosphodiesterase 1 (TDP1): qHTS in cells in presence of CPT; conditions: chicken DT40 Tdp1-/-;hTDP1 cells + 20 nM CPT, ATP luminescence, 48 h; activity change, negative = growth inhibition: at 46.2 µM (top of the series) unless noted; note: nearly all actives have a fitted effect of over 55% in size
Outline: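 Chicken DT40 Tdp1-/- cells complemented with human TDP1, 400 cells/well, exposed to compounds plus 20 nM camptothecin for at least 48 h at 37 C; viability read as ATP content by CellTiter-Glo luminescence.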
% is set by controls: 0 for no effect and ±100 for the full control effect; potency is the fitted concentration of half-maximal effect; tags give direction and shape of the fitted curve.

Row | SMILES | Potency | activity change, negative = growth inhibition
1 | CNc1nc(NCc2ccc(N(C)C)cc2)c2sccc2n1 | active: 18.4 µM | 
2 | OC(c1ccc(F)c(F)c1)c1ncc(-c2ccc(F)cc2)[nH]1 (stereo unspecified) | inconclusive [inhibitor, partial curve, poor fit] | 
3 | COc1cccc(N=Cc2c(O)n(-c3cccc(C)n3)c(=O)c3ccccc23)c1 | inconclusive [inhibitor, single point] | 
4 | CCOc1ccccc1CNC(=O)c1cc2occc2n1C |  | inactive: 9.31%
5 | CCOc1ccc(CNC(=O)c2ccc(NC(=O)N3CCSc4ncccc43)cc2)cc1 | inconclusive [inhibitor, single point] | 
6 | O=c1cc(-c2ccc(O)c(O)c2)oc2ccc3ccccc3c12 | inconclusive [inhibitor, single point] | 
7 | O=C(c1cc(Cl)nc2ccccc12)N(Cc1nnc(-c2ccc(Cl)cc2)o1)C1CC1 | active: 11.6 µM | 
8 | O=C(CSc1nnc(-c2ccccc2)c2ccccc12)NCCN1C(=O)CSC1=O |  | inactive: -0.725%
9 | CCOC(=O)c1cnc2c(cnn2C)c1Cl |  | inactive: -29.3%
10 | Cc1ccc(S(=O)(=O)N(C)c2ccc3ccccc3c2)cc1 | inconclusive [inhibitor, single point] | 
11 | COc1ccc(C2=C(C=C(C#N)C#N)C(c3ccccc3C)c3ccccc3O2)cc1OC (stereo unspecified) | inconclusive [inhibitor, single point] | 
12 | O=C(COc1ccc(Cl)cc1)NCc1nnc(SCC(=O)NCC2CCCO2)o1 (stereo unspecified) | inconclusive [inhibitor, single point] | 
13 | Cc1cccc(Nc2ccc([N+](=O)[O-])cn2)c1 |  | inactive: -4.32%
14 | NC(=O)C1(N2CCCCC2)CCN(CC(=O)Nc2ccccc2Sc2ccccc2)CC1 | inconclusive [inhibitor, single point] | 
15 | O=C(CN1CCN(Cc2ccc3c(c2)OCO3)CC1)Nc1ccc(F)cc1 |  | inactive: 2.43%
16 | Cc1ccc(C)c(NC(=O)c2cnc3sc(N4CCOCC4)nn3c2=O)c1 |  | inactive: -7.19%
17 | COC(=O)[C@H]1C2CC3c4[nH]c5ccccc5c4CCN3CC2CC[C@@H]1O (stereo partly specified) |  | inactive: -3.01%
18 | COc1cc2c(C#CCCO)c(-c3ccc(C#N)cc3)oc(=O)c2cc1OC |  | inactive: -20.2%
19 | CCCCCN(C(=O)CCC(=O)OCC(=O)c1c(C)cc(C)cc1C)c1c(N)n(CCCC)c(=O)[nH]c1=O | inconclusive [inhibitor, single point] | 
20 | COc1c2ccoc2nc2c(OC)c(O[C@@H]3O[C@H](C)[C@@H](O)[C@@H](O)[C@H]3O)ccc12 |  | inactive: 6% [at 9.04 µM]
21 | Cc1ccc(S(=O)(=O)N(C(=O)c2ccncc2)c2ccc(OC(=O)c3ccncc3)c3ccccc23)cc1 | active: 2.59 µM | 
22 | CCC(=O)N1CCN(c2ccc(NC(=O)c3ccc([N+](=O)[O-])o3)cc2)CC1 | active: 4.61 µM | 
23 | COc1ccccc1-c1c(C(F)(F)F)oc2cc(OC(=O)c3ccc([N+](=O)[O-])cc3)ccc2c1=O | inconclusive [inhibitor, partial curve] | 
24 | C[C@]12c3[nH]c4ccc(Cl)cc4c3CCN1C(=O)[C@@H](CC(=O)NCCc1ccccn1)C[C@@H]2C(=O)N1CCCCC1 | inconclusive [inhibitor, single point] | 

Row | SMILES | Potency | activity change, negative = growth inhibition
25 | O=C1C(=Cc2cccc(Cl)c2)Cc2ccccc21 | inconclusive [inhibitor, single point] | 
26 | C[C@@H]1Cn2cnc(C(=O)NCC(=O)OC(C)(C)C)c2C(=O)N1 |  | inactive: 3.54%
27 | COc1ccc(CCN2C(=O)N(c3ccc(OC)cc3)C(=O)C2CC(=O)Nc2ccccc2)cc1 (stereo unspecified) |  | inactive: -0.372%
28 | CC(C)[C@H]1COCCS(=O)(=O)N1Cc1ccccc1-c1cccc2c1oc1ccccc12 | inconclusive [inhibitor, single point] | 
29 | Cc1cc(=O)c2cc(C(=O)Nc3cccc(C)c3C)ccc2[nH]1 | inconclusive [inhibitor, single point] | 
30 | O=C(c1ccc(CSc2ccc(Cl)cc2)o1)N1CCOCC1 | inconclusive [inhibitor, single point] | 
31 | Cc1cc(C(=O)N2CCC2(C)C(=O)NCC(C)(C)C)nn1C (stereo unspecified) |  | inactive: 11.4%
32 | Cc1ccc(S(=O)(=O)c2c(COC(=O)c3ccccc3Cl)c(-c3ccccc3)nn2C)cc1 | inconclusive [inhibitor, single point] | 
33 | COc1ccc(N=C2SC(C(N)=O)CC(=O)N2Cc2ccc3c(c2)OCO3)cc1 (stereo unspecified) | inconclusive [inhibitor, single point] | 
34 | O=C(Nc1cc(S(=O)(=O)N2CCCCC2)ccc1Cl)C1=NN(c2ccccc2)C(=O)CC1 | inconclusive [inhibitor, single point] | 
35 | O=S(=O)(c1ccc2c(c1)OCCO2)N1CCC(c2nc3ccccc3[nH]2)CC1 | inconclusive [inhibitor, single point] | 
36 | O=C(Cn1nc(Cl)nc1Cl)c1ccc([N+](=O)[O-])cc1 | inconclusive [inhibitor, single point] | 
37 | Cc1nc2ccccc2c(=O)n1/N=C/c1cccs1 | inconclusive [inhibitor, single point] | 
38 | CCNc1nc(SCC(N)=O)nc2sc3c(c12)CCN(C)C3 | inconclusive [inhibitor, single point] | 
39 | C=C(Cl)COc1ccc2c(CCC)cc(=O)oc2c1 | inconclusive [inhibitor, single point] | 
40 | Cc1c(C(=O)NCc2ccc(Cl)c(Cl)c2)sc(=O)n1Cc1cccc(F)c1 | inconclusive [inhibitor, single point] | 
41 | CCN(CC)c1nc(NN)nc(Nc2ccc(C)c(Cl)c2)n1 | inconclusive [inhibitor, single point] | 
42 | COC(=O)C1=C(CCc2ccccc2)NC(=O)NC1c1ccc(Br)cc1 (stereo unspecified) | inconclusive [inhibitor, single point] | 
43 | CSCCC(NC(=O)COc1ccccc1)C(=O)OCc1ccc([N+](=O)[O-])cc1 (stereo unspecified) |  | inactive: -8.44%
44 | CN1C(=O)[C@@](O)(c2cn(C)c3ccccc23)c2ccccc21 |  | inactive: -6.33%
45 | COc1ccc(Nc2ncc(C(=O)N3CCN(c4ccccc4OC)CC3)c3ccccc23)cc1 | active: 29.1 µM and active: 13 µM | 
46 | O=C(CN1CCCCCC1)NC(c1ccccc1)c1ccccc1 |  | inactive: -26.4%
47 | CC1(OC(=O)C2CCCC2)C(=O)C=C2C=C(c3ccsc3)N(c3ccccc3)C=C2C1=O (stereo unspecified) | inconclusive [inhibitor, partial curve, poor fit] | 
48 | O=C1Nc2ccccc2C(=O)N2[C@H](c3cccc(Br)c3)[C@@H]3C(=O)N(Cc4ccccc4)C(=O)[C@@H]3[C@H]12 | inconclusive [inhibitor, single point] | 

Row | SMILES | Potency | activity change, negative = growth inhibition
49 | CCOC(=O)c1ccc(NC(=O)CN2C(=O)c3cccnc3Sc3ccccc32)cc1 | inconclusive [inhibitor, single point] | 
50 | C/C(=N/NC(=O)c1ccoc1C)c1ccc(N2CCOCC2)cc1 |  | inactive: -2.6%
51 | CCOC(=O)C1=CC[C@H]2c3c(c4ccc(OC)cc4n3C)C(=O)C1N2S(=O)(=O)c1ccc(C)cc1 | active: 5.8 µM | 
52 | CC(C)[C@H](NC(=O)c1cccc(S(=O)(=O)N2CCCC2)c1)c1nc2ccccc2[nH]1 | inconclusive [inhibitor, single point] | 
53 | Cc1ccc(NC(=O)CN(C)C(=O)c2n[nH]c(=O)c3ccccc23)cc1 |  | inactive: -3.03%
54 | CCOc1ccc(C(=O)NCCc2sc(-c3ccc(F)cc3)nc2C)cc1 | inconclusive [inhibitor, partial curve] | 
55 | CS(=O)(=O)N(CC(=O)N1CCCCCC1)c1ccc(Br)cc1 |  | inactive: -24%
56 | CN(CC(=O)Nc1ccccc1C(F)(F)F)Cc1c(O)ccc2ccccc12 |  | inactive: -12.1%
57 | Cc1nn(Cc2c(F)c(F)c(F)c(F)c2F)c(C)c1NC(=O)c1ccc(COc2ccc(Cl)cc2Cl)o1 | active: 20.6 µM | 
58 | O=C(Cn1ncc(Cl)c(Cl)c1=O)Nc1ccc2c(c1)OCO2 | active: 7.31 µM | 
59 | CCc1ccccc1Oc1nc2cc(-c3cccc(OC)c3)sc2c(=O)n1C | inconclusive [inhibitor, single point] | 
60 | CCCCCCc1ccc(N2C[C@H](Cc3ccccc3)[C@@H](CC(=O)NCc3ccc(OC)cc3)C2=O)cc1 | active: 12.6 µM | 
61 | CCOC(=O)c1ccccc1NC(=O)COC(=O)CCNS(=O)(=O)c1ccccc1 |  | inactive: 2.62%
62 | COC(=O)c1ccccc1NC(=O)CSc1nc2ccsc2c(=O)n1Cc1ccc(C(=O)O)cc1 |  | inactive: -22.4%
63 | CCN(CC)c1ccc(NC(=O)c2cccnc2)c(C)c1 | inconclusive [inhibitor, single point] | 
64 | Cc1cc2oc(=O)cc(CN3CCN(c4ccccc4)CC3)c2cc1Cl |  | inactive: -1.77%
65 | COCCn1c(-c2ccco2)nc2nc3ccccc3nc21 |  | inactive: -27.2%
66 | CCN(CC1COc2ccccc2O1)C(=S)Nc1ccccc1 (stereo unspecified) | inconclusive [inhibitor, full curve, poor fit] | 
67 | COc1ccc(NC(=O)CSc2ncc3c(n2)-c2ccccc2N(C)S3(=O)=O)cc1Cl | inconclusive [inhibitor, single point] | 
68 | COc1ccc(CN(C)C(=O)c2ccc(NS(=O)(=O)c3ccc(F)cc3)cc2)c(OC)c1OC | inconclusive [inhibitor, single point] | 
69 | Cc1ccc(NC(=O)CSc2nccc(=O)[nH]2)c(S(=O)(=O)N2CCOCC2)c1 |  | inactive: -3.31%
70 | CCC1CCCCN1C(=O)NC(=O)c1ccccc1 (stereo unspecified) |  | inactive: 30%
71 | COc1ccc(Cc2nc3ccc(C(=O)NC4CCOC4)cc3o2)cc1OC (stereo unspecified) | active: 11.6 µM | 
